Laboratory results as given in publication PMC4745757.
Results are given in words; binding and its absence hold for the method and conditions named. Binding seen in cells or lysates may run through a third protein. Some binding calls cover weakened binding; strength is not graded here.

The chains behind the UniProt entries cited, without tags or fusion partners. Where a name states a change or a piece, a line headed by the entry shows the natural chain unless it says otherwise.
UniProt P12956: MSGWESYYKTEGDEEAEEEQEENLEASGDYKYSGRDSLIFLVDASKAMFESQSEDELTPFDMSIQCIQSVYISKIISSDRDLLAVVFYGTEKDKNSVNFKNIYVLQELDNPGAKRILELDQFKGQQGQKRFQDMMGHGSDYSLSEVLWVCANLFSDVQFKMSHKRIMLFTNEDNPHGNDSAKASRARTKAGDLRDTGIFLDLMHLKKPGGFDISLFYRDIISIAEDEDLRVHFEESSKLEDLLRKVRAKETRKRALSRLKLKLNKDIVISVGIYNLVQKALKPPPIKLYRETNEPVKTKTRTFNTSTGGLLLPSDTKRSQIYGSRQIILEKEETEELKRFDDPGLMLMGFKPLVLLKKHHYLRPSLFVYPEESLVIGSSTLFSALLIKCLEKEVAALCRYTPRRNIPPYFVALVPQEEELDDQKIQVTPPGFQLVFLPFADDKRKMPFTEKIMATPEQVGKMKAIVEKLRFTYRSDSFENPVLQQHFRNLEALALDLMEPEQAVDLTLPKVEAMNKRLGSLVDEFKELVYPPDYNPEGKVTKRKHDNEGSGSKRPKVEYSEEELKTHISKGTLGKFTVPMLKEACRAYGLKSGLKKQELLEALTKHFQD
UniProt Q00613: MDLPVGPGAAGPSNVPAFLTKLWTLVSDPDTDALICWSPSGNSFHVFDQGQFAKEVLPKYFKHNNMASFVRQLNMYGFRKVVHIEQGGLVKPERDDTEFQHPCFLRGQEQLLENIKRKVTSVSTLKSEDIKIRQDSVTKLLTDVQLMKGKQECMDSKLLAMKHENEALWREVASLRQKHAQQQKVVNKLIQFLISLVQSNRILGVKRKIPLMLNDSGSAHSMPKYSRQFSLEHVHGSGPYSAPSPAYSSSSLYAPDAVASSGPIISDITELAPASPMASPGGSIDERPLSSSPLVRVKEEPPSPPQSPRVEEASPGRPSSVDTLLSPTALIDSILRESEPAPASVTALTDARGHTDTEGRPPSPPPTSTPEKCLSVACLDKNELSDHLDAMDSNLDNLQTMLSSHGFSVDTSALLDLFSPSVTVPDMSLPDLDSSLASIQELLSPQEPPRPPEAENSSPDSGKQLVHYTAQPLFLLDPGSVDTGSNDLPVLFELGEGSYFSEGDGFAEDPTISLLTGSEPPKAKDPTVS
UniProt P04792: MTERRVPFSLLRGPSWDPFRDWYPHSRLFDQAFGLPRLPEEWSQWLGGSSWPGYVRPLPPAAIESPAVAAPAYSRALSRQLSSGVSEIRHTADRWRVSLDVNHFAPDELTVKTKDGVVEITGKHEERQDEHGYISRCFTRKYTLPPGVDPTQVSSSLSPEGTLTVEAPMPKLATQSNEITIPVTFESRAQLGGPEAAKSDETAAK
UniProt P13010: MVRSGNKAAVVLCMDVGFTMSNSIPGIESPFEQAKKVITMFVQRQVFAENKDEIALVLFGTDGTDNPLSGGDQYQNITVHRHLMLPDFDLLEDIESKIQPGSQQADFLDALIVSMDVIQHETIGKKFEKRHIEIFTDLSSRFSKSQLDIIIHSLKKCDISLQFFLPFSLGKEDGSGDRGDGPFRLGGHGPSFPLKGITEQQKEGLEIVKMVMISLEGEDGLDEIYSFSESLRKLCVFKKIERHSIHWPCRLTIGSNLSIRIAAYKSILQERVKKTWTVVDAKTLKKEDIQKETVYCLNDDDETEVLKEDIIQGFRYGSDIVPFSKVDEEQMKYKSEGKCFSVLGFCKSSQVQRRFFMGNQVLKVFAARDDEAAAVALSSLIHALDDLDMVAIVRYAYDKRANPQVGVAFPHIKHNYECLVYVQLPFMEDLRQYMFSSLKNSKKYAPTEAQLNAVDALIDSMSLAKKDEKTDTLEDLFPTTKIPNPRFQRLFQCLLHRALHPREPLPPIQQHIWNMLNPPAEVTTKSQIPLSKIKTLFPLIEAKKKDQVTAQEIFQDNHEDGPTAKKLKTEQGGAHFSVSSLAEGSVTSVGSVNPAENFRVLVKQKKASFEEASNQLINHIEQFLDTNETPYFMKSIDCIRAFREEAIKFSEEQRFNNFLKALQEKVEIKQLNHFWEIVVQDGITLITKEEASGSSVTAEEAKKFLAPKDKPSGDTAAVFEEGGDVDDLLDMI

How the values were obtained:
[1] = molecular target: Ku70, endogenous (human (endogenous in HOS, NCI-H460, HCT116, HEK293T)) (UniProt P12956); test: co-IP; Flag-tagged HSF1 constructs (wild type, deletion and point mutants) transiently transfected into HEK293T cells; western blotting following immunoprecipitation of cell extracts
[2] = molecular target: Ku70, endogenous (human (endogenous in HOS, NCI-H460, HCT116, HEK293T)) (UniProt P12956); test: co-IP; purified recombinant HSF1-GST proteins (0, 10, 50, and 100 ng/ml) added to HOS cell extracts; after 16 hrs immunoprecipitation and western blotting; pair of the added HSF1 and a Ku protein; only the binder purified
[3] = molecular target: Ku70, endogenous (human (endogenous in HOS, NCI-H460, HCT116, HEK293T)) (UniProt P12956); test: co-IP; immunoprecipitation from HOS cell extracts (50 mM HEPES pH 7.6, 150 mM NaCl, 5 mM EDTA, 0.1% Nonidet P-40), protein A-Sepharose, western blotting; cells untreated, exposed to 5 Gy IR, heat shocked (42°C, 30 min), or transfected with Si-HSF1 or HSF1 wild type plasmid
[4] = molecular target: Ku70, endogenous (human (endogenous in HOS, NCI-H460, HCT116, HEK293T)) (UniProt P12956); test: co-IP; immunoprecipitation from NCI-H460 cell extracts; cells heat shocked or exposed to IR (Supplementary Figure 6C)
[5] = molecular target: Ku70, endogenous (human (endogenous in HOS, NCI-H460, HCT116, HEK293T)) (UniProt P12956); test: co-IP; Si-Control or Si-HSF1 transfected HCT116 (p53+/+ and p53-/-) cells exposed to 5 Gy IR; western blotting following immunoprecipitation of cell extracts
[6] = molecular target: GST-HSF1 fusion protein (human) (UniProt Q00613); test: pull-down; GST-HSF1 fusion proteins loaded on glutathione-sepharose beads, incubated with HOS cellular lysates in binding buffer for 18 hours at 4°C; western blotting; only the target purified
[7] = molecular target: GST-HSF1 fusion protein (human) (UniProt Q00613); test: co-IP; in vitro translated Ku70/Ku86 proteins incubated with GST-HSF1; immunoprecipitates subjected to an in vitro binding assay; only the target purified

Row | binding [1] | Substance | other results
1 | binds | Flag-HSF1-K80R (from UniProt Q00613 1-529) | 
2 | binds | Flag-HSF1-K298R (from UniProt Q00613 1-529) | 
3 | binds | Flag-HSF1-S216A (from UniProt Q00613 1-529) | 
4 | binds | Flag-HSF1-S216E (from UniProt Q00613 1-529) | 
5 | binds | Flag-HSF1-S326A (from UniProt Q00613 1-529) | 
6 | binds | Flag-HSF1-S326E (from UniProt Q00613 1-529) | 
7 | binds | Flag-HSF1-S419A (from UniProt Q00613 1-529) | 
8 | binds | Flag-HSF1-S419E (from UniProt Q00613 1-529) | 
9 | binds | Flag-tagged wild-type HSF1 (from UniProt Q00613 1-529) | 
10 |  | GST-HSF1 fusion protein (from UniProt Q00613 1-529) | binding [2]: binds
11 |  | HSP27, endogenous (from UniProt P04792 1-205) | binding [3]: no binding
12 |  | Heat shock factor 1 (HSF1), endogenous (from UniProt Q00613 1-529) | binding [4]: binds; binding [5]: binds; binding [3]: binds
13 |  | Ku70, endogenous (from UniProt P12956 1-609) | binding [6]: binds
14 |  | in vitro translated full-length wild-type Ku70 (from UniProt P12956 1-609) | binding [7]: binds
15 |  | in vitro translated full-length wild-type Ku86 (from UniProt P13010 1-732) | binding [7]: binds
